# Values quoted from earlier work, collected in article PMC11006913.
# The list shows a part of the results.
# Legend:
# ISX (Homo sapiens) = ISX (Homo sapiens) (UniProt Q2M1V0); settings: PBM; conditions not shown; double strand, one strand shown; scale: upbm affinity estimate (log intensity, higher = more binding, comparable within an allelic series)
# ISX R83Q (Homo sapiens) = ISX R83Q (Homo sapiens) (UniProt Q2M1V0); settings: PBM; conditions not shown; double strand, one strand shown; scale: upbm affinity estimate (log intensity, higher = more binding, comparable within an allelic series)
sequence,measurement,setting,value
GGGGCCCC [8-mer GGGGCCCC],binding signal,ISX (Homo sapiens),9.67
same,binding signal,ISX R83Q (Homo sapiens),9.69
CCGGGAGC [8-mer CCGGGAGC],binding signal,ISX (Homo sapiens),9.78
same,binding signal,ISX R83Q (Homo sapiens),9.67
GCACCCCC [8-mer GCACCCCC],binding signal,ISX (Homo sapiens),9.74
same,binding signal,ISX R83Q (Homo sapiens),9.73
GAGCGCCC [8-mer GAGCGCCC],binding signal,ISX (Homo sapiens),9.62
same,binding signal,ISX R83Q (Homo sapiens),9.62
CTATTATC [8-mer CTATTATC],binding signal,ISX (Homo sapiens),13.3
same,binding signal,ISX R83Q (Homo sapiens),11.6
CTGCGCCC [8-mer CTGCGCCC],binding signal,ISX (Homo sapiens),9.57
same,binding signal,ISX R83Q (Homo sapiens),9.73
CGCGGGCC [8-mer CGCGGGCC],binding signal,ISX (Homo sapiens),9.73
same,binding signal,ISX R83Q (Homo sapiens),9.71
CCAGCTGG [8-mer CCAGCTGG],binding signal,ISX (Homo sapiens),9.71
same,binding signal,ISX R83Q (Homo sapiens),9.74
GGGCCCCA [8-mer GGGCCCCA],binding signal,ISX (Homo sapiens),9.69
same,binding signal,ISX R83Q (Homo sapiens),9.76
GCCCAGCC [8-mer GCCCAGCC],binding signal,ISX (Homo sapiens),9.77
same,binding signal,ISX R83Q (Homo sapiens),9.78
ATACTAAT [8-mer ATACTAAT],binding signal,ISX (Homo sapiens),13
same,binding signal,ISX R83Q (Homo sapiens),11.5
CAGACCCC [8-mer CAGACCCC],binding signal,ISX (Homo sapiens),9.52
same,binding signal,ISX R83Q (Homo sapiens),9.73
CCGGGTGC [8-mer CCGGGTGC],binding signal,ISX (Homo sapiens),9.78
same,binding signal,ISX R83Q (Homo sapiens),9.7
CGGCCCGC [8-mer CGGCCCGC],binding signal,ISX (Homo sapiens),9.62
same,binding signal,ISX R83Q (Homo sapiens),9.64
GCCGGTCC [8-mer GCCGGTCC],binding signal,ISX (Homo sapiens),9.66
same,binding signal,ISX R83Q (Homo sapiens),9.62
CCCCTGGC [8-mer CCCCTGGC],binding signal,ISX (Homo sapiens),9.97
same,binding signal,ISX R83Q (Homo sapiens),9.8
CCATGCCC [8-mer CCATGCCC],binding signal,ISX (Homo sapiens),9.81
same,binding signal,ISX R83Q (Homo sapiens),9.76
CCCAAAGG [8-mer CCCAAAGG],binding signal,ISX (Homo sapiens),9.64
same,binding signal,ISX R83Q (Homo sapiens),9.77
GGCCGCCA [8-mer GGCCGCCA],binding signal,ISX (Homo sapiens),9.83
same,binding signal,ISX R83Q (Homo sapiens),9.72
CCCCCTTC [8-mer CCCCCTTC],binding signal,ISX (Homo sapiens),9.54
same,binding signal,ISX R83Q (Homo sapiens),9.7
CCCGACCC [8-mer CCCGACCC],binding signal,ISX (Homo sapiens),9.58
same,binding signal,ISX R83Q (Homo sapiens),9.66
CCCGCACC [8-mer CCCGCACC],binding signal,ISX (Homo sapiens),9.82
same,binding signal,ISX R83Q (Homo sapiens),9.73
CACCCGGC [8-mer CACCCGGC],binding signal,ISX (Homo sapiens),9.74
same,binding signal,ISX R83Q (Homo sapiens),9.73
GAGTCGCC [8-mer GAGTCGCC],binding signal,ISX (Homo sapiens),9.7
same,binding signal,ISX R83Q (Homo sapiens),9.76
AGGGGGCG [8-mer AGGGGGCG],binding signal,ISX (Homo sapiens),9.54
same,binding signal,ISX R83Q (Homo sapiens),9.68
CACAGCCC [8-mer CACAGCCC],binding signal,ISX (Homo sapiens),9.79
same,binding signal,ISX R83Q (Homo sapiens),9.76
CACGGGCC [8-mer CACGGGCC],binding signal,ISX (Homo sapiens),9.63
same,binding signal,ISX R83Q (Homo sapiens),9.59
ACAAATCT [8-mer ACAAATCT],binding signal,ISX (Homo sapiens),10.8
same,binding signal,ISX R83Q (Homo sapiens),10.3
CCCCGCAC [8-mer CCCCGCAC],binding signal,ISX (Homo sapiens),9.72
same,binding signal,ISX R83Q (Homo sapiens),9.76
CGCCTAGC [8-mer CGCCTAGC],binding signal,ISX (Homo sapiens),9.64
same,binding signal,ISX R83Q (Homo sapiens),9.68
GCTGGGCC [8-mer GCTGGGCC],binding signal,ISX (Homo sapiens),9.61
same,binding signal,ISX R83Q (Homo sapiens),9.61
TTGGCCAA [8-mer TTGGCCAA],binding signal,ISX (Homo sapiens),10.1
same,binding signal,ISX R83Q (Homo sapiens),9.86
ATAATAAG [8-mer ATAATAAG],binding signal,ISX (Homo sapiens),13.7
same,binding signal,ISX R83Q (Homo sapiens),11.8
GACGCGCC [8-mer GACGCGCC],binding signal,ISX (Homo sapiens),9.78
same,binding signal,ISX R83Q (Homo sapiens),9.77
AGGCCGGG [8-mer AGGCCGGG],binding signal,ISX (Homo sapiens),9.66
same,binding signal,ISX R83Q (Homo sapiens),9.7
CCGGGCGC [8-mer CCGGGCGC],binding signal,ISX (Homo sapiens),9.68
same,binding signal,ISX R83Q (Homo sapiens),9.8
